From PMC6212790
This is one part of the list. At the low end of the ranking, values are background and their order means little.

Molecular target: T1, GST-Rok (full length) (UniProt O34857)
T1 sequence: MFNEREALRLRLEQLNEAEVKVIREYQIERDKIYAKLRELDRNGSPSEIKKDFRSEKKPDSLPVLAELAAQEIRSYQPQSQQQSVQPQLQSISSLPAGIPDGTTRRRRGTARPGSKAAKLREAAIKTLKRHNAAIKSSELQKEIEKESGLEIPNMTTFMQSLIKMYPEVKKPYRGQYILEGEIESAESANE
Assay: protein binding microarray;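 also: rank score from −0.5 (least bound) to 0.5 (best bound)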
Details: Rok is a gene silencer of Bacillus subtilis; high values mean tight binding; most listed sequences are background and not binding sites; double strand, one strand shown

Sequence | binding signal
GAGGAGAA | -0.0268 E-score
CATGGCGC | -0.242 E-score
ACGTCGCC | 0.0709 E-score
GGTCAGGA | -0.235 E-score
AATAATAT | 0.311 E-score
CCCTACGC | -0.256 E-score
ACAGACGC | 0.0405 E-score
ACGGAGTG | -0.198 E-score
CATGTAGA | 0.374 E-score
GGCAGTTA | 0.091 E-score
GTGTGAAC | 0.0663 E-score
ATGACTGG | -0.0372 E-score
GCCCTTAA | -0.156 E-score
AAAATGGG | 0.121 E-score
ATGCAACG | 0.0719 E-score
CTTAAAAG | -0.119 E-score
TGACTCAA | -0.0649 E-score
AGTGAAAT | 0.0768 E-score
ATAGAGTA | 0.197 E-score
CGGGGCTC | -0.363 E-score
GTGAGTTA | 0.16 E-score
TATAAGCA | 0.171 E-score
AATTATCT | 0.306 E-score
ATAGAGAA | 0.227 E-score
CAAGGGCA | -0.319 E-score

Sequence | binding signal
TAAGGTAA | 0.0381 E-score
CCGTCGCG | -0.251 E-score
CCGGTCGC | -0.409 E-score
TGCCACAA | -0.0807 E-score
AAATAGAA | 0.368 E-score
CCAAGCAG | -0.171 E-score
ATCGTTTC | 0.14 E-score
CTCTGCAC | -0.243 E-score
GTTAACAA | 0.216 E-score
AGCCAAAG | -0.285 E-score
CTGTCCGC | -0.225 E-score
CCCGAAGA | -0.0531 E-score
AGCGGCCC | -0.32 E-score
ACTGCATG | 0.0229 E-score
CAAAACTG | -0.0906 E-score
CTATTATC | 0.214 E-score
CCAACAGG | -0.215 E-score
TGAGGGAA | -0.0338 E-score
CTTTCGTA | -0.0127 E-score
AGGAAAAC | -0.114 E-score
GCCCGCGA | -0.235 E-score
ATAATGTG | 0.201 E-score
AAGGCCGG | -0.202 E-score
GAGCGGGC | -0.308 E-score
CTACAACA | 0.343 E-score

Sequence | binding signal
AGTCCAAG | 0.00586 E-score
ATCTGATC | 0.00876 E-score
GGTGCCTA | -0.273 E-score
CGCTTCAA | 0.00795 E-score
GACCAACC | -0.00371 E-score
AAGAGCGC | -0.164 E-score
AAGCGGGT | -0.204 E-score
AAGGGATC | -0.218 E-score
GAGTATCC | -0.139 E-score
GTGTACAA | 0.167 E-score
GGTCTATA | 0.0291 E-score
ACTAAACC | -0.0253 E-score
ATCGTACA | 0.272 E-score
ATGCAAAT | 0.202 E-score
CCCCTTAG | -0.286 E-score
AGCGCTGG | -0.124 E-score
GAGCCCAC | -0.301 E-score
TCGCTACA | -0.09 E-score
TACTGCTA | 0.25 E-score
CATGATAG | 0.176 E-score
ACCAGCCA | -0.266 E-score
CTACACAA | 0.209 E-score
CTCTCTTC | -0.27 E-score
ACCGAAAC | 0.0496 E-score
TGCCGCAA | -0.0797 E-score

Sequence | binding signal
ACAACTGA | 0.0465 E-score
AGTTACGC | 0.18 E-score
CAACAAAA | 0.0676 E-score
AAGAACGT | -0.0168 E-score
AGGCAAAC | -0.0904 E-score
GTGAAGTA | 0.0953 E-score
AAGCCTCC | -0.366 E-score
CAGCACTG | -0.17 E-score
GCGCATGA | -0.111 E-score
GACCATAC | 0.04 E-score
GAAATGCC | -0.299 E-score
ATCACTTC | 0.0831 E-score
ACGAATGC | -0.0897 E-score
CGGTACTA | 0.298 E-score
CACTATGA | 0.114 E-score
GGACGACA | -0.111 E-score
AGCTTTCA | -0.2 E-score
ACTCATCC | 0.074 E-score
AGGACTGC | -0.173 E-score
AATGCATA | 0.152 E-score
CACATGCG | -0.129 E-score
CAGGCGAC | 0.0107 E-score
TAGATGAA | 0.262 E-score
CGATACAC | 0.175 E-score
TCATAGAA | -0.0162 E-score

Sequence | binding signal
ACATAGTC | 0.114 E-score
CTCCTAGC | -0.141 E-score
ATTTTAAG | 0.167 E-score
AACATGTC | -0.00301 E-score
ATATCAAG | 0.175 E-score
GCGAACAC | -0.111 E-score
ACAAGTAA | 0.185 E-score
TCAAGACA | -0.127 E-score
CACGGGGG | -0.386 E-score
ATCGCCGC | 0.0256 E-score
TGCCACCA | -0.138 E-score
ATCTTGCG | -0.121 E-score
GCCGACGC | -0.193 E-score
ACAGGTTA | 0.144 E-score
CCGGTAGC | 0.184 E-score
GTAATTTA | 0.355 E-score
AATACTCT | 0.11 E-score
AGAAAATA | 0.328 E-score
GGAGCTCA | -0.164 E-score
AACGTGAC | -0.00743 E-score
CTGTCGAC | -0.0113 E-score
TGAATCCA | -0.0708 E-score
CTGTCCCC | -0.157 E-score
GTCGTGCA | -0.0147 E-score
CTCTGAAG | -0.245 E-score

Sequence | binding signal
AGTTATAC | 0.329 E-score
ATAAGAGA | -0.0183 E-score
AGCATCTC | -0.022 E-score
AAACCGCC | -0.327 E-score
ACAGGTGA | 0.0837 E-score
GCGTCCAA | 0.0719 E-score
GAGGGATC | -0.26 E-score
AAAAGAAC | -0.132 E-score
CTGGGTGA | -0.274 E-score
CGGACCAC | -0.286 E-score
CGTACTAG | 0.0856 E-score
ATCCTCGG | -0.218 E-score
ATACATGA | 0.294 E-score
ACCAAAGG | -0.0942 E-score
CTGCCTCC | -0.404 E-score
ACGAGTAG | -0.0634 E-score
AAATGGCT | -0.116 E-score
ATCACGCC | -0.203 E-score
AGACCGTG | -0.0895 E-score
GTAGGAGA | 0.0173 E-score
CTGCGGGC | -0.298 E-score
GCCTCCGA | -0.337 E-score
ACCTAGGA | 0.0434 E-score
GTCAATGA | -0.0227 E-score
GCATACAC | 0.107 E-score

Sequence | binding signal
ACAGTGCT | -0.243 E-score
AATCGTGA | -0.0107 E-score
TATACCCA | 0.279 E-score
TAACTGTA | 0.303 E-score
CAGTTAAC | 0.119 E-score
ATTCCGCC | -0.297 E-score
CGTTAAAC | 0.0818 E-score
CCCACGAG | -0.11 E-score
AGAACGCT | 0.188 E-score
GTCATCAA | -0.111 E-score
CACACGGG | -0.249 E-score
GCGGCCAC | -0.296 E-score
CAGCAGAG | -0.304 E-score
CCTTGTAG | -0.124 E-score
CGTATGTC | -0.0443 E-score
ACCTCAAG | 0.0188 E-score
AGCCTAGA | -0.106 E-score
ACTGGCAA | -0.106 E-score
GGCTACAA | 0.0236 E-score
ATAGCAAT | 0.298 E-score
GCGCACAC | -0.224 E-score
CCTATAAC | 0.226 E-score
